In ChEMBL document CHEMBL1157539, “Thousands of chemical starting points for antimalarial lead identification” (Nature, 2010) one finds IFI data, which are given here for 59 compounds.

SMILES strings stand for the structures. Several values for one entry are separate records, joined by “and”; a condition that tells them apart may be missing. Identical values can stand only once. In all, about 13,000 compounds were measured (“IFI”: median about 4, highest 2% from about 17 on). The list shows a part of the results.

A short description of this assay: GSK_TCMDC: Inhibition Frequency Index (IFI). The number of non-kinase HTS assays where a compound showed > 50 % inhibition, expressed as a percentage of the number of such assays in which the compound was tested (-0 is zero). The class given is functional.
For `CC(C(=O)N1CCCC1)N1CCN(C(c2ccccc2)c2ccccc2)CC1` (centres undefined), the IFI is 0.76%.

In turn, `Cc1cc(N(C)CCN(C)C)nc(Nc2ccc(Cl)cc2)n1` registered an IFI of 1.2%.

For `COc1cc(Cc2cnc(N)nc2N)cc(OCCCCC2NC(=O)NC2=O)c1OC` (centres undefined), the IFI was found to be 0%.

In turn, `Cc1cc(OCCCN2CCCC2)ccc1NC(=O)COc1ccc(Cl)cc1C(=O)c1cc(C#N)cc(C(F)(F)F)c1` registered an IFI of 7.91%.

For `COc1ccc(Cl)cc1C(=O)Nc1ccc(-c2nc3ccccc3[nH]2)cc1`, the IFI was 6.52%.

In turn, `CN(C)c1ccc(CN2CCC(CNC(=O)c3cc(-c4cccc(C(F)(F)F)c4)cs3)C2)cc1` (centres undefined) came in with an IFI of 8.16%.

With `CC(C)n1c(C(C)(C)C)cc2c3c(N)nc(N)nc3ccc21`, the IFI was determined as 4.24%.

For the compound `COc1ccc(Nc2nc(NCc3ccco3)c3ccccc3n2)cc1`, the IFI was determined as 9.77%.

`O=C(Nc1ccc(Cl)cc1)c1cccc(CN2CCCN(Cc3cccc(O)c3)CC2)c1` yielded an IFI of 6.43%.

Turning to `O=C(/C=C/c1ccc(Cl)c(Cl)c1)NC1CCN(Cc2cccc(O)c2)CC1`, the IFI came to 0.67%.

`C=CCn1c(SCC(=O)Nc2cc(C)ccc2OC)nc2sc(C)cc2c1=O` came in with an IFI of 3.42%.

`Cc1cccc(C)c1N1CCN(C2CCC(NC(=O)c3cc4ccccc4[nH]3)CC2)CC1` (centres undefined) displayed an IFI of 13.2%.

Turning to `CCOc1ccc(C(C)NC(=O)Nc2ccccc2)cc1OCC` (centres undefined), the IFI is -0%.

`CC(C)(C)c1ccc(NC(=O)c2ccc(CN3CCCN(Cc4ccc(F)cc4)CC3)cc2)cc1` came in with an IFI of 15.6%.

Take `FC(F)(F)Oc1ccc(-c2cnc3ccc(NCc4ccncc4)nn23)cc1`: the IFI amounted to 1.53%.

In turn, `COc1ccc(Cn2c(Nc3cccc(C(F)(F)F)c3)nc3ccc(C(=O)NCCN4CCCC4)cc32)cc1Cl` displayed an IFI of 3.62%.

As for `CCCCNC(=O)[C@H](CC1CCCCC1)NC(=O)c1ccc(O)c(-c2cccc(C(F)(F)F)c2)c1`, the IFI amounted to 2.19%.

For `Cc1ccc(N2CCN(CCCCNC(=O)c3ccc(NC(=O)c4ccc(Cl)cc4)cc3)CC2)c(C)c1`, the IFI worked out at 4.31%.

Regarding `Cc1cc(N(C)C2CCN(C)C2)nc(Nc2ccc(Cl)cc2)n1` (centres undefined), the IFI is 2.38%.

`CC(Cc1ccc(C(=O)Nc2ccc(CC(C)NCCc3cccc(Cl)c3)cc2)cc1)NCCc1ccc(C(F)(F)F)cc1` (centres undefined) displayed an IFI of 13.1%.

`CC(C)(CNC(=O)C1CCN(CCOCc2ccccc2)CC1)c1nc(-c2ccc(Cl)c(O)c2)c(-c2ccncc2)[nH]1`: the IFI came out at 2.21%.

`CC(C)CNCc1cccc(-c2cccc(CNC3CCN(Cc4ccccc4)CC3)c2)c1` yielded an IFI of 7.14%.

Consider `Oc1cc2ccccc2cc1CNC1CCCCC1`, for which the IFI was found to be 0%.

Compound `COc1ccc(OCCn2cc(C(=O)c3ccco3)c3ccccc32)cc1` returned an IFI of 5.61%.

`OC1CCCN(Cc2ccc(-c3cccc(-c4nc5ccccc5[nH]4)c3)cc2)C1` (centres undefined) had an IFI of -0%.

For `O=c1[nH]ccc2nc(N[C@@H]3CCNC3)nc(Nc3ccc4c(c3)S(=O)(=O)CC4)c12`, the IFI was determined as 0%.

Turning to `Cc1cccc2nc(-c3ccc(-c4cccc(CNCc5ccc(S(C)(=O)=O)cc5)c4)s3)[nH]c12`, the IFI is 4.81%.

For `Cc1nc2c(c(O)c1Cl)-c1ccc(Oc3cccc(C(F)(F)F)c3)cc1C2=O`, the IFI is 11.9% and 13.9%.

For the compound `CC(C)(C)c1ccc(NC(=O)c2ccc(CN3CCCN(Cc4cccc(F)c4)CC3)cc2)cc1`, the IFI came to 14.6%.

In turn, `CC(Cc1ccc(NC(=O)c2ccc(CNCCc3ccccc3)cc2)cc1)NCCc1cccc(Cl)c1` (centres undefined) came in with an IFI of 9.86%.

For the compound `CC(C)CCNC(=O)C1Cc2c([nH]c3ccc(Br)cc23)C2(CCN(CCc3ccccc3)CC2)N1` (centres undefined), the IFI came out at 5.67%.

Take `CNC(=O)c1cnc(Nc2ccc(N3CCN(C)CC3)cc2)nc1Nc1cccc(OC)c1`: the IFI worked out at 4.48%.

On to `CCCCCCN(CCCCCC)CC(O)c1cc(-c2ccc(Cl)cc2)nc2c(C)cc(C)cc12` (centres undefined), for which the IFI worked out at 3.55%.

Take `Cc1ccc2[nH]c(C)c(Br)c(=O)c2c1`: the IFI stood at 0.89%.

With `Cc1nc(NCc2ccccc2)cc(NCC(O)c2ccc(O)cc2)n1` (centres undefined), the IFI was -0%.

Compound `Cc1n[nH]c(C)c1C1CCN(CC2CCC(NC(=O)/C=C/c3ccc(Cl)c(Cl)c3)CC2)CC1` (centres undefined) came in with an IFI of 0.72%.

For `CN1CCN(Cc2ccc(OCc3cccc(COc4ccc(CN5CCN(C)CC5)cc4I)c3)c(I)c2)CC1`, the IFI turned out to be 10.5%.

On to `Cc1cccc2c3c([nH]c12)C1(CCN(Cc2ccccc2)CC1)NC(C(=O)NCc1ccccc1)C3` (centres undefined), for which the IFI is 2.27%.

The compound `CCN(CC)C(=O)C(=O)c1c[nH]c2ccc(Cl)cc12` had an IFI of -0%.

For the compound `O=C(NC1CCCCC1)c1csc(C2CCCN(C(=O)c3ccc(O)c(-c4cccc(C(F)(F)F)c4)c3)C2)n1` (centres undefined), the IFI was determined as 3.01%.

In the case of `COc1cccc(-c2csc(C(=O)NC3CCCCN(Cc4ccc(C(C)(C)C)cc4)C3)c2)c1` (centres undefined), the IFI stood at 3.64%.

As for `CC(C)Nc1ccc(Nc2ccnc3cc4ccccc4cc23)cc1`, the IFI came to 8.82%.

The compound `Cc1ccccc1NC(=O)NC1CCN(CCCCCNC(=O)/C=C/c2ccc(Cl)c(Cl)c2)CC1` gave an IFI of 2.68%.

In turn, `CCC(=O)Nc1ccc(C(O)CN2CCC3(C=Cc4ccccc4O3)CC2)cc1` (centres undefined) returned an IFI of 4.76%.

Take `CCOc1ccc2c(=NN=Cc3cccc(F)c3)cc(C)[nH]c2c1`: the IFI amounted to 1.35%.

In the case of `COc1cc2nc(N3CCN(c4cc(C)ccc4C)CC3)nc(N)c2cc1OC`, the IFI was 14%.

`Cc1c(CN2CCC(N3CCC(C(=O)NC4CC4)CC3)CC2)[nH]c2c(Cl)cccc12` registered an IFI of -0%.

For `Clc1cc(Cl)c2cc(CNCCCNc3ccc4ccccc4n3)[nH]c2c1`, the IFI was 14.8%.

Turning to `c1cc(OCCN2CCCC2)ccc1CNC1CCN(CC2CCCCC2)CC1`, the IFI is 4%.

As for `COCCOc1cccc(CN2CCC(c3cc4nc(C)cc(C(F)(F)F)n4n3)C2)c1` (centres undefined), the IFI was found to be 6.98%.

`Cc1cc(NC(=O)NCCN2CCC(NS(=O)(=O)c3ccc(Br)cc3)C2)c2ccccc2n1` (centres undefined) returned an IFI of 1.75%.

`COc1cc(O)c2c(=O)c(OC)c(-c3cccc(Cl)c3OC3O[C@H](CO)[C@@H](O)[C@H](O)[C@H]3O)oc2c1OC` (some centres undefined) registered an IFI of 0%.

Take `CC(C(=O)NC1CCN(c2ccnc(Nc3ccc(F)cc3)n2)C1)c1ccc(Cl)cc1` (centres undefined): the IFI came to 10.4%.

Consider `Cc1cc(C(=O)Nc2ccc3c(c2)CCN3C2CCN(Cc3cc(F)cc(F)c3F)C2)no1` (centres undefined), for which the IFI came out at 3.13%.

The compound `COc1cccc(-c2cnc(N)c(-c3nc4cc(Cl)c(F)cc4[nH]3)c2)c1` registered an IFI of 3.08%.

`CC(=O)Nc1ccc(Nc2c3ccccc3nc3ccccc23)cc1` showed an IFI of 6.25%.

`O=C(Nc1ccc(-c2nc3ccccc3[nH]2)cc1)c1ccc([N+](=O)[O-])s1` showed an IFI of 1.43%.

`CC(C)(C)c1ccc2[nH]c(-c3ccc(/C=C/C(=O)NC4CCN(Cc5ccccc5)CC4)cc3)nc2c1` registered an IFI of 5.19%.

`COc1ccc(NC(=O)C2c3ccccc3C(=O)N(C3CCCC3)C2c2cccs2)cc1OC` (centres undefined): the IFI was 4.76%.
